Experimental data: the antibiotic and cytotoxicity screens of Wong et al. (2023)
Some of the results follow.

How the values were obtained:
[1] = tested on: HSkMC (human skeletal muscle cells); assay: cytotoxicity call (relative viability < 0.9); details: 10 µM
[2] = tested on: HepG2; assay: cytotoxicity call (relative viability < 0.9); details: 10 µM
[3] = tested on: S. aureus RN4220; assay: growth inhibition call (relative growth <= 0.2); details: 50 µM

| SMILES | cytotoxicity call [1] | cytotoxicity call [2] | growth inhibition call [3] |
| --- | --- | --- | --- |
| Cc1noc(C)c1S(=O)(=O)Nc1ccc2c(c1)CC(=O)N([C@H](C)CO)C[C@H](C)[C@H](CN(C)Cc1ccc(-c3ccccc3)cc1)O2 | inactive | inactive | inactive |
| CC(=O)O[C@@H](C)C[N+](C)(C)C | inactive | inactive | inactive |
| C[C@H](CO)N1C[C@H](C)[C@@H](CN(C)C(=O)Nc2cccc3ccccc23)OCCCC[C@H](C)Oc2ccc(N(C)C)cc2C1=O | inactive | inactive | inactive |
| C[C@@H]1CCCCO[C@H](CN(C)Cc2ccccc2)[C@@H](C)CN([C@@H](C)CO)C(=O)c2cc(NC(=O)C3CCCCC3)ccc2O1 | inactive | inactive | inactive |
| C[C@H]1CCCCO[C@@H](CN(C)Cc2ccccc2)[C@@H](C)CN([C@@H](C)CO)C(=O)c2cc(NC(=O)c3ccccc3)ccc2O1 | inactive | inactive | inactive |
| CC(C)NC(=O)N(C)C[C@@H]1Oc2c(NS(=O)(=O)c3cccs3)cccc2C(=O)N([C@H](C)CO)C[C@H]1C | inactive | inactive | inactive |
| C[C@H]1CN([C@@H](C)CO)C(=O)Cc2cc(NC(=O)CCCCCC(=O)Nc3ccccc3N)ccc2O[C@H]1CN(C)S(C)(=O)=O | inactive | inactive | inactive |
| CN(Cc1ccc(/C=C/C(=O)Nc2ccc(-c3cccs3)cc2N)cc1)CC12CC3CC(CC(C3)C1)C2 | inactive | inactive | inactive |
| Cc1ccccc1S(=O)(=O)N1C[C@@H](O)COC[C@@H]2O[C@H](CC(=O)N3CCOCC3)CC[C@H]21 | inactive | inactive | inactive |
| COc1ccc(S(=O)(=O)N(C)C[C@@H]2OCCCC[C@H](C)Oc3ccc(NS(=O)(=O)c4ccc(Cl)cc4)cc3C(=O)N([C@@H](C)CO)C[C@H]2C)cc1 | inactive | inactive | inactive |
| CN1CCN(C(=O)C[C@@H]2C=C[C@H](NC(=O)Nc3ccccc3F)[C@H](CO)O2)CC1 | inactive | inactive | inactive |
| O=C(C[C@H]1C[C@@H]2c3cc(NC(=O)NC4CCCC4)ccc3O[C@@H]2[C@@H](CO)O1)NCc1ccc(-c2ccccc2)cc1 | active | active | inactive |
| COCC(=O)Nc1ccc2c(c1)OC[C@H](C)N(C(=O)Cc1ccccn1)C[C@@H](C)[C@@H](OC)CN(C)C2=O | inactive | inactive | inactive |
| COc1ccc(S(=O)(=O)N(C)C[C@@H]2OCCCC[C@@H](C)Oc3ccc(NC(=O)Nc4ccc5c(c4)OCO5)cc3C(=O)N([C@@H](C)CO)C[C@@H]2C)cc1 | inactive | inactive | inactive |
| C[C@H]1CN([C@@H](C)CO)C(=O)c2cc(NC(=O)C3CC3)ccc2O[C@@H]1CN(C)S(=O)(=O)c1ccc(F)cc1 | inactive | inactive | inactive |
| C[C@@H]1CCCCO[C@@H](CN(C)C(=O)C2CCCCC2)[C@H](C)CN([C@H](C)CO)C(=O)c2cc(NC(=O)Nc3ccc(C(F)(F)F)cc3)ccc2O1 | inactive | inactive | inactive |
| CC(=O)OC1CCC2(C)C(=CCC3C2CCC2(C)C(C(C)CCCC(C)C)CCC32)C1 (centres undefined) | inactive | inactive | inactive |
| C[C@@H]1CN([C@@H](C)CO)C(=O)c2cc(NC(=O)CCCN(C)C)ccc2O[C@H]1CN(C)Cc1ccccc1 | inactive | inactive | inactive |
